Measured values from PubChem BioAssay AID493208 (National Center for Advancing Translational Sciences (NCATS), 2011).
About 340 (0.77%) of roughly 44,000 compounds were called active. Another 5% or so got no clear call; they are omitted. The call rests on the fitted dose curve; in most records, active means well fitted inhibition curve with a large enough effect; inconclusive means small, poorly fitted or top-dose-only effect; inactive means flat fitted curve, though single readings scatter. The list shows a part of the results.

Assay: Acumen qHTS Assay for Inhibitors of the mTORC1 Signaling Pathway in MEF (Tsc2-/-, p53-/-) Cells: Sytravon;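 further: plate controls were DMSO for no effect and rapamycin for full effect; nearly all actives have a fitted effect of over 50% in size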
Details: phospho-rpS6 immunofluorescence/PI, 24 h; series mostly up to 38.3 µM; activity change, negative = inhibition: at the top concentration
How it was run: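 Immunofluorescence of rpS6 phosphorylation in Tsc2-/-, p53-/- MEFs after 24 h compound exposure, normalized to propidium iodide signal. Activity is expressed as % positive cells, thresholded with 7.5 nM rapamycin.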

Activity change, negative = inhibition, inactive:
O=C1N(Cc2ccccc2Cl)c2ccccc2C1(O)c1c[nH]c2ccccc12 (stereo unspecified) 3.11%
COc1cc(CN2CCN(S(=O)(=O)c3ccc(NC(C)=O)cc3)CC2)cc(OC)c1OC -10.5%
CCn1cc(C(=O)NCCc2ccc(OC)c(OC)c2)c(=O)c2cc(S(=O)(=O)N3CCCCCC3)ccc21 0.646%
CCOC(=O)c1sc2ccccc2c1S(=O)(=O)Nc1ccc(C(C)=O)cc1 0.827%
CC(=O)c1ccc(NS(=O)(=O)c2c(C)nc3scc(C)n3c2=O)cc1 -19.5%
Cc1cccc(Cn2c(=O)n(Cc3ccccc3)c(=O)c3c2c2cc(C)ccc2n3C)c1 -0.947%
CCOC(=O)c1cc(C)n(CC2CCC(C(=O)Nc3ccccc3OC)CC2)c1C (stereo unspecified) -13.2%
CCc1ccc(N(CC)C(=O)Cn2nc(Cc3cccnc3)c3ccccc3c2=O)cc1 -0.893%
CSc1ncc(C(=O)Nc2ccc(C)c(Cl)c2)c(-c2ccccc2)n1 -5.56%
COc1ccc(Cl)cc1NC(=O)N(C)CCc1c(C)nn(C)c1C 0%
COc1ccccc1NC(=O)c1oc2ccccc2c1NC(=O)COc1cccc(C)c1 1.23%
Cc1ccc2oc(-c3ccc(C)c(NC(=O)C(C)(C)Oc4ccc(Cl)cc4)c3)nc2c1 11.7%
c1coc(-c2nc3ccccn3c2Nc2ccc3c(c2)OCCO3)c1 3.86%
CCOc1ccc(NC(=O)CCS(=O)(=O)c2ccc3nc(C)sc3c2)cc1 1.9%
COc1cc(Cl)c(C)cc1NC(=O)c1cnn(-c2ccc(C)cc2)c1-n1cccc1 -7.33%
Cc1ccc(Cn2c(SCc3ccc(C(=O)NCCc4ccccc4)cc3)nc3ccncc32)cc1 -0.177%
Cc1nc(-c2ccc(C)c(N3CCN(C(=O)Nc4ccc(Br)cc4)CC3)c2)no1 -21.1%
CCn1cc(S(=O)(=O)c2cccc(C)c2)c(=O)c2cc(F)c(N3CCCCC3C)cc21 (stereo unspecified) -13.1%
COc1ccc(-n2c(=O)c3sc4ccccc4c3n(CC(=O)N3CCCC3)c2=O)cc1 0.508%
COc1ccc(-c2cn3c(n2)sc2cc(C(=O)Nc4ccccc4F)ccc23)cc1 9.26%
COc1ccc(-n2c(SCC(=O)N3CCCc4ccccc43)nc3c([nH]c4ccccc43)c2=O)cc1 -1.8%
CCc1ccc2occ(CC(=O)Nc3c(C(=O)Nc4ccc(Cl)cc4)oc4ccccc34)c2c1 -2.24%
CN(C)CCNC(=O)c1ccc2nc(CCc3ccccc3)oc2c1 -6.65%
Cc1ccc(CNC(=O)C(=O)NCC(c2cccs2)S(=O)(=O)c2cccs2)cc1 (stereo unspecified) 0.223%
CC(C)(C)OC(=O)N1CCC(c2c(C(=O)Nc3ccc4c(c3)OCO4)cnn2-c2ccc(F)cc2F)CC1 -11.5%
Cc1cc(-c2ccc(C)c(S(=O)(=O)N(Cc3cccs3)C(C)C)c2)on1 -6.26%
